Experimental data: PubChem BioAssay AID1508624 (National Center for Advancing Translational Sciences (NCATS), 2021)
The campaign covered roughly 48,000 compounds. About 120 (0.25%) were called active. Not shown: some 4% with an inconclusive outcome. Calls follow the shape of the dose curve; as a rule, active = well fitted activation curve with a large enough effect; inconclusive = small, poorly fitted or top-dose-only effect, or another doubt; inactive = no such curve, though single readings can be large or run the other way. This is one part of the list.

Assay: Primary qHTS for Identification of Small Molecule Activators of Huntingtin-Antisense Promoter Activity; also: nearly all actives have a fitted effect of over 55% in size
Conditions: HEK293 HTT-AS promoter firefly luciferase reporter (activity 0% = vehicle and -100% = no light), 24 h; series mostly up to 57.5 µM; activity change, positive = activation: at the top concentration
Summary of the method: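 Firefly luciferase readout (Dual-Glo, 10 min RT) after 24 h, 37 °C compound exposure (final up to 57.5 uM) of HEK293 reporter cells cultured 24 h beforehand; PTC124 at 50 uM final as control inhibitor; activity scaled vehicle 0%, zero RLU -100%.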
Potency is read from the fitted curve at half-maximal effect.

Row | SMILES | activity change, positive = activation | Potency
1 | O=C(Nc1ccc(F)c(F)c1)c1cc(S(=O)(=O)N2CCc3ccccc32)ccc1F | inactive: -37.7% | 
2 | COc1ccc2c(c1)c(CC(=O)Nc1cccc(F)c1C)c(C)n2C(=O)c1ccc(Cl)cc1 | inactive: -10.5% | 
3 | COc1cccc(-n2ccn(CC(=O)Nc3ccccc3F)c(=O)c2=O)c1 | inactive: -9.82% | 
4 | COc1ccc(C2=C(C)C(N3CCC(C(=O)NCc4ccco4)CC3)=NS2(=O)=O)cc1 | inactive: -11.2% | 
5 | Cc1ccc(CNS(=O)(=O)c2cc(C(=O)Nc3ccc(C(C)C)cc3)ccc2F)cc1 | inactive: -20.3% | 
6 | Cc1ccc(CNC(=O)CSCc2nc(-c3ccc(Cl)cc3)oc2C)cc1 | inactive: -26.5% | 
7 | CCc1ccccc1NC(=O)Cn1cc(C(=O)c2ccc(Cl)cc2)c(=O)c2ccc(C)nc21 | inactive: -9.07% | 
8 | O=C(NC1CCCC1)c1cnn(-c2ccc(F)cc2F)c1C1CCNCC1 | inactive: -4.89% | 
9 | Cc1ccc(S(=O)(=O)N2CCN(Cc3ccccc3)CC2)c(C)c1NS(C)(=O)=O | inactive: -6.76% | 
10 | COc1ccc(Cl)cc1NC(=O)CSc1nc2c([nH]c3ccccc32)c(=O)n1-c1ccccc1 | inactive: -35.4% | 
11 | Cc1cccc(Cn2c(=O)n(CCCCC(=O)NCc3ccc4c(c3)OCO4)c(=O)c3ccccc32)c1 | inactive: -4.31% | 
12 | O=S(=O)(O)c1cc(I)c(O)c2ncccc12 | inactive: -3.38% | 
13 | CCSc1nnc2c(n1)OC(c1ccc(OC)cc1OC)N(C(C)=O)c1ccccc1-2 (centres undefined) | inactive: -3.28% | 
14 | CCC(=O)O[C@]1(C(=O)COC)[C@@H](C)C[C@H]2[C@@H]3CCC4=CC(=O)C=C[C@]4(C)C3(F)[C@@H](O)C[C@@]21C (some centres undefined) | inactive: -9.42% | 
15 | Cc1ccc(C2=NC(c3ccc(F)cc3)=Nc3ccc(C)cc3N2)cc1 | inactive: 2.63% | 
16 | COc1ccccc1OCCCCn1c(C2CC(=O)N(c3ccccc3Cl)C2)nc2ccccc21 (centres undefined) | inactive: -21.2% | 
17 | CCN(CC)CCNC(=O)CN1C(=O)c2cccnc2Oc2ccc(C)cc21 | inactive: -4.95% | 
18 | COc1ccc(CCNC(=O)Cn2c(=O)n(-c3ccc(OC)c(OC)c3)c(=O)c3ccccc32)cc1OC | inactive: -18.3% | 
19 | COc1ccccc1OCC1CNC(=O)O1 (centres undefined) | inactive: 3% | 
20 | CN(Cc1ccccc1)Cc1c(O)ccc2c(=O)c(-c3ccccc3)c(C(F)(F)F)oc12 | inactive: -40.7% | 
21 | Cc1ccc(NC(=O)CN2c3ccccc3S(=O)(=O)c3ccccc32)cc1F | inactive: -27.6% | 
22 | CCN(C(=O)c1sc2cc(OC)ccc2c1Cl)c1ccccc1 | inactive: -32.6% | 
23 | O=C(NCc1ccc(F)cc1)C1CCN(S(=O)(=O)c2ccc3c(c2)CCCN3C(=O)C2CCC2)CC1 | inactive: -32% | 
24 | CN(C)c1ccc(NC(=O)CSc2nc(-c3ccco3)cc(C(F)(F)F)n2)cc1 | inactive: -24.2% | 

Row | SMILES | activity change, positive = activation | Potency
25 | O=C(COc1ccccc1Cl)N(Cc1ccco1)Cc1ccco1 | inactive: -11.4% | 
26 | Cc1ccccc1C(=O)Oc1cc(-c2ccc3c(c2)OCO3)cc(=O)c2c(C)oc(C)c12 | inactive: -14.4% | 
27 | Cc1ccc(Cl)cc1NC(=O)c1cc2c(=O)n3cccc(C)c3nc2n1C | inactive: 1.81% | 
28 | Cc1ccc(S(=O)(=O)c2cnc(SCC(=O)Nc3ccccc3C(F)(F)F)[nH]c2=O)cc1C | inactive: -9.05% | 
29 | O=C(NCc1ccc(F)cc1)c1cnc(N2CCOCC2)c2ccccc12 | inactive: -13.4% | 
30 | Cc1cc(C)cc(NC(=O)C2CCCN(c3cnccn3)C2)c1 (centres undefined) | inactive: 5.02% | 
31 | CCOc1cc(CNC(=O)c2ccc3c(c2)nc2n3CCCCC2)ccc1OC | inactive: -23.8% | 
32 | COc1ccc(-n2c(=O)c3c4c(sc3n(CC(=O)N3CCCCC3C)c2=O)CCC4)c(OC)c1 (centres undefined) | inactive: -10.6% | 
33 | Cc1ccc(N2CCN(C(=O)c3ccc(Nc4nc5ccccc5n5nnnc45)cc3)CC2)c(C)c1 | inactive: 7.59% | 
34 | COc1ccccc1N1CCN(S(=O)(=O)c2c(C)sc3ncn(CC(=O)Nc4ccc(C(C)C)cc4)c(=O)c23)CC1 | inactive: 8.19% | 
35 | CC1CCN(CCCNC(=O)CN2C(=O)CSc3ccc(S(=O)(=O)N4CCC(C)CC4)cc32)CC1 | inactive: -0.269% | 
36 | Cc1ccc2ncc(S(=O)(=O)c3ccccc3)c(N3CCCCC3C)c2c1 (centres undefined) | inactive: -33.4% | 
37 | COc1ccc(C2=NC3(CCCCCC3)N(CC(=O)Nc3ccc(C)c(C)c3)C2=O)cc1 | inactive: -31.8% | 
38 | CCn1c(C)c(C)c2cc(C(=O)NCc3ccc(N(C)C)cc3)ccc21 | inactive: -17.5% | 
39 | COc1ccc(CNC(=O)CN(c2cc(C(F)(F)F)ccc2Cl)S(C)(=O)=O)cc1 | inactive: -16.7% | 
40 | O=C1[C@H](CC[C@H](O)c2ccc(F)cc2)[C@@H](c2ccc(O)cc2)N1c1ccc(F)cc1 | inactive: -20.8% | 
41 | Cc1ccc(C(=O)c2oc3ccccc3c2NC(=O)c2cc(-c3ccc(Cl)cc3)on2)cc1 | inactive: -18.1% | 
42 | COc1ccc(Cl)cc1NC(=O)Cn1ncc2c3ccccc3n(Cc3ccccc3)c2c1=O | inactive: -24% | 
43 | Cc1ccccc1Nc1sc(C(=O)c2ccc(F)cc2)c(N)c1C(=O)NCCc1ccccc1 | inactive: 0.85% | 
44 | CN(C)c1nc(Cc2ccc(NC(=O)c3ccc4ccccc4c3)cc2)nc(Cl)c1CC(=O)O | inactive: -5.14% | 
45 | CC(=O)c1cccc(NC(=O)c2sc(-n3nc(C)c(CCC(C)C)c3C)nc2C)c1 | inactive: -3.52% | 
46 | Cc1nc(-c2ccc(S(=O)(=O)N3CCN(c4cccc(Cl)c4)CC3)cc2)co1 | inactive: -29.8% | 
47 | COc1cc(NC(=O)Cn2c(=O)n(CC(=O)NCCc3ccc(OC)c(OC)c3)c(=O)c3sccc32)cc(OC)c1 | inactive: -11.8% | 
48 | CC(=O)Nc1ccc(S(=O)(=O)NCC2CCC(C(=O)NCc3ccccc3Cl)CC2)cc1 (centres undefined) | inactive: 5.32% | 

Row | SMILES | activity change, positive = activation | Potency
49 | CSc1ccc(CNC(=O)Cc2csc3ccccc23)cc1 | inactive: 14.5% | 
50 | CC(=O)NCCNc1nc2c(-c3cccc(C)c3)nnn2c2ccc(Cl)cc12 | inactive: 8.46% | 
51 | COc1ccc(N2CC(NC(=O)Cc3cccs3)CC2=O)cc1 (centres undefined) | inactive: -4.35% | 
52 | COc1ccc(-n2nnnc2C2CCN(S(=O)(=O)c3ccc(F)cc3Cl)CC2)cc1 | inactive: -40.9% | 
53 | COc1cccc(Nc2sc(C(=O)c3ccc4c(c3)OCO4)c(N)c2S(=O)(=O)c2ccccc2)c1 | inactive: -26.1% | 
54 | Cc1cc(C)cc(NC(=O)CSc2nc3c([nH]c4ccccc43)c(=O)n2-c2ccc(F)cc2)c1 | inactive: -27.2% | 
55 | CNC(=O)C(=O)NCC(c1ccc2c(c1)OCO2)N1CCOCC1 (centres undefined) | inactive: -5.62% | 
56 | CCOc1ccc(-c2cc(NC(=O)c3cccc(Cl)c3)c(C(=O)OC)s2)cc1 | inactive: -2.94% | 
57 | CC1=C(C(=O)Nc2ccccc2)C(c2ccc(C)cc2)n2nc(SCc3ccccc3C)nc2N1 (centres undefined) | inactive: 0.412% | 
58 | CCCOc1ccc(C(=O)Nc2nonc2-c2ccc(OCC)cc2)cc1 | inactive: -5.58% | 
59 | COc1ccc(CNC(=O)C2=C(C)C(=O)OC23CCCCC3)cc1OC | inactive: -4.75% | 
60 | O=C(c1ccc(F)cc1F)N1CCC(c2nc(-c3ccc(S(=O)(=O)N4CCCC4)cc3)no2)CC1 | inactive: 0.0687% | 
61 | Cc1ccc(OCCCCn2cnc3ccccc32)cc1 | inactive: -13.6% | 
62 | CCN(CC)S(=O)(=O)c1ccc2c(c1)nc(CN(C)C(=O)Nc1ccc(F)cc1)n2C | inactive: -6.59% | 
63 | COc1cc(Cl)c(C)cc1NC(=O)CCc1c(C)nc2c3cccnc3nn2c1C | inactive: -12.4% | 
64 | CS(=O)(=O)c1ccccc1-c1nnc(NC(=O)c2ccc3c(c2)OCCO3)o1 | inactive: 1.37% | 
65 | COc1ccc(CNC(=O)CSc2n[nH]c(-c3ccc(F)cc3)n2)cc1 | inactive: -14.4% | 
66 | O=C(Nc1nc2n(n1)C(c1ccccc1)C=C(c1ccccc1)N2)c1ccccc1 (centres undefined) | inactive: -34.9% | 
67 | COc1ccc(NC(=O)c2nnn(CC(=O)Nc3c(C)cc(C)cc3C)c2N)cc1OC | inactive: 3.44% | 
68 | Cc1ccc(C)c(CN2C(=O)c3ccccc3S(=O)(=O)c3ccc(C(=O)Nc4cc(F)ccc4F)cc32)c1 | inactive: -28.2% | 
69 | COc1ccc(CNC(=O)CN(c2ccc(C)cc2)S(=O)(=O)c2c(C)noc2C)cc1 | inactive: -16.3% | 
70 | COc1ccc(CNC(=O)C(CCSC)NS(=O)(=O)c2ccc3c(c2)oc(=O)n3C)cc1 (centres undefined) | inactive: -0.359% | 
71 | Fc1ccc(Nc2nc(SCc3cccc(Cl)c3)nc3ccccc23)cc1 | inactive: -38.2% | 
72 | CSc1nc(-c2ccccc2Cl)nc2c1Cc1c(CO)cnc(C)c1O2 | inactive: -35.1% | 

Row | SMILES | activity change, positive = activation | Potency
73 | COc1ccc(CNC(=O)Cn2c(=O)c3cccn3c3ccccc32)cc1 | inactive: -23.3% | 
74 | CCc1nnc2c(N3CCN(c4cccc(C(F)(F)F)c4)CC3)nc3ccccc3n12 | inactive: -11.2% | 
75 | COc1cccc(CNc2ncnc3onc(C)c23)c1 | inactive: -58% | 
76 | O=C(Cn1c(=O)n(Cc2ccco2)c(=O)c2oc3ccccc3c21)Nc1ccc(F)c(Cl)c1 | inactive: -22.2% | 
77 | COc1ccc(N(CC(=O)N2CCc3ccccc3C2)S(=O)(=O)c2ccc(C)cc2)cc1Cl | inactive: -21.7% | 
78 | CN1CCN(CCCNC(=O)c2cnn(-c3ccc(F)cc3)c2-n2cccc2)CC1 | inactive: -12.9% | 
79 | c1ccc(-c2cc3ncc4c(n3n2)-c2ccccc2OC4)cc1 |  | active: 1.58 µM
80 | COc1ccc(C2=C(C(C)=O)Sc3nnc(-c4ccc(Cl)cc4)n3N2C(C)=O)cc1OC | inactive: -19.7% | 
81 | O=C(Nc1c(C(=O)N2CCN(c3ccccc3F)CC2)oc2ccccc12)c1ccco1 | inactive: -26.8% | 
82 | CCOC(=O)c1ccc(NC(=O)c2cn(-c3ccccc3)nc2-c2ccc(C)cc2)cc1 | inactive: -0.983% | 
83 | CCCc1ccc(S(=O)(=O)N2CCC(c3nnnn3-c3ccc(OC)cc3)CC2)cc1 | inactive: -12.8% | 
84 | Cc1oc2cc3oc(=O)c(CC(=O)N4CCCCC4)c(C)c3cc2c1C | inactive: -4.31% | 
85 | CCOc1cc(C#N)c(NC(=O)c2ccc(OC)c(S(=O)(=O)N3CCN(c4ccccc4)CC3)c2)cc1OCC | inactive: -8.16% | 
86 | CN1CCOC(c2ccccc2)c2ccccc2C1 (centres undefined) | inactive: -5.39% | 
87 | CCCOc1ccc(CNC(=O)c2oc3ccc4c(c3c2C)C(=O)CC(C)(CC)O4)cc1 (centres undefined) | inactive: -25.5% | 
88 | CC(NC(=O)C1CCN(S(=O)(=O)c2ccc(F)cc2)CC1)c1ccccc1 (centres undefined) | inactive: -26.5% | 
89 | CN1CCC(=C2c3ccccc3CCc3sccc32)CC1 | inactive | 
90 | COc1cccc(C(=O)Nc2nc3ccc(S(=O)(=O)N4CCCC4)cc3s2)c1 | inactive: -20.7% | 
91 | O=C(Nc1ccc(Br)cc1)c1cc(-c2cccs2)nc2ccccc12 | inactive: -4.18% | 
92 | Cc1ccc(NS(=O)(=O)c2ccc(-c3cnc(C4CC4)o3)cc2)cc1N(C)C | inactive: -39.3% | 
93 | CC(C)Oc1ccc(C(=O)N2CCC(c3nc4ccccc4o3)CC2)cc1 | inactive: -19.1% | 
94 | CC(C)c1ccc(NC(=O)CSC2=Nc3ccccc3C3=NC(CC(=O)NCc4cccs4)C(=O)N23)cc1 (centres undefined) | inactive: 6.16% | 
